# Experimental data published in PubChem BioAssay AID1458 (National Center for Advancing Translational Sciences (NCATS), 2008).
# Values joined by “and” are separate entries in the source; they are usually repeats but may differ in a detail not shown here. Identical values can stand only once. In all, about 210,000 compounds went through this assay and about 5,900 (2.8%) were called active. Inconclusive means that the source gave no clear call. Such entries were picked first, then a sample of the others. The call rests on the fitted dose curve; in most records, active means well fitted activation curve with a large enough effect; inconclusive means small, poorly fitted or top-dose-only effect; inactive means no such curve, though single readings can be large or run the other way. Potencies beside an inconclusive call are fits to weak or partial responses and may not hold up. Where a structure was tested more than once in an assay, its records may differ in their call.
# Assay: qHTS Assay for Enhancers of SMN2 Splice Variant Expression; further: nearly all actives have a fitted effect of over 55% in size
# Conditions: HEK293 SMN2-luciferase splicing reporter, luminescence, 30-36 h; series mostly up to 46.1 µM
# Procedure, shortened: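 qHTS luciferase splicing reporter: luminescence rises when SMN2 exon 7 is included in transfected HEK293 cells. Compound exposure lasted 30-36 h at 37C, with 4.5 mM final sodium butyrate as control, followed by a ONE-Glo read.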
# Potency means the concentration at half of the fitted maximal effect; tags describe the fitted curve by direction and shape.
row,SMILES,Potency
1,COc1ccc(OC)c(NC(=O)Cn2ncc3c2-c2ccccc2OC3)c1,inactive
2,COc1ccc(/C=N/Nc2ncnc3c2[nH]c2ccccc23)c(OC)c1OC,"inconclusive: 5.62 µM [activator, partial curve, poor fit]"
3,CC1CCN(Cc2nnnn2-c2cccc([N+](=O)[O-])c2)CC1,"inconclusive: 0.0089 µM [activator, full curve, poor fit]"
4,O=C(N/N=C/c1ccccn1)c1cc(C2CC2)[nH]n1,"inconclusive: 12.6 µM [activator, partial curve]"
5,CC(C)NC(=O)CSCc1ccccc1Cl,"inconclusive: 2.82 µM [activator, full curve]"
6,O=C(/C=C/c1cccs1)Nc1ccc(Br)cn1,active: 14.1 µM
7,COc1ccc(N(/N=C2\Sc3ccccc3C2=O)C(C)=O)cc1,active: 15.8 µM
8,CCC(=O)N1CCc2cc(S(=O)(=O)NC(Cc3ccccc3)C(=O)NCc3ccc(C)cc3)ccc21 (stereo not drawn),inactive
9,O=C(CC1N=C2c3ccccc3N=C(SCc3ccc(F)cc3)N2C1=O)NCc1ccco1 (stereo not drawn),"inconclusive: 12.6 µM [activator, single point]"
10,c1ccc(CSc2nnc(Cc3ccccc3)o2)cc1,"inconclusive: 22.4 µM [activator, single point]"
11,Cc1cccc(C)c1NC(=O)CSc1cc(C(=O)c2nccn2C)c2ccccc2n1,inactive
12,CCn1cc(NC(=O)Nc2ccccc2C(=O)OC)c(C(N)=O)n1,"inconclusive: 0.251 µM [activator, full curve]"
13,O=C(/C=C/Nc1ccc(F)c(Cl)c1)c1ccco1,"inconclusive: 15.8 µM [activator, single point]"
14,Cc1ccccc1-c1noc(-c2cccs2)n1,"inconclusive: 25.1 µM [activator, single point]"
15,CS(C)(=O)=O,inactive
16,Cc1cc(C(=O)N/N=C2\CC(=O)c3ccccc32)c(C)n1-c1ccccc1,active: 10 µM
17,COc1ccc(/C=N/Nc2nc(Nc3ccccc3)nc(N3CCCCC3)n2)c(OC)c1,inactive
18,Cc1ccccc1-n1c(SCc2csc(Nc3ccccc3)n2)nnc1-c1cccnc1,inactive
19,CCCCOc1ccc(C(=O)Nc2ccc3c(c2)OCO3)cc1,"inconclusive: 11.2 µM [activator, partial curve]"
20,COc1cccc(Nc2nc(N)nc(-c3oc4ccccc4c3C)n2)c1,"inconclusive: 22.4 µM [activator, single point]"
21,Cc1cc(C)c2oc(-c3cc(NC(=O)Cc4ccccc4)ccc3Cl)nc2c1,inactive
22,O=C(COc1nnnc2ccccc12)N1CCCc2ccccc21,"inconclusive: 0.501 µM [activator, full curve]"
23,O=C(Nc1ccc([N+](=O)[O-])cc1Cl)c1cc(Cl)ccc1O,inactive and active: 126 nM and active: 25.1 µM
24,CCN(CC)S(=O)(=O)c1ccc2c(c1)N(CC(=O)NCc1ccc(F)cc1)C(=O)CO2,inactive
25,COc1ccc(-c2nnc(-c3cc(OC)c(OC)c(OC)c3)o2)cc1OC,"inconclusive: 0.708 µM [activator, full curve, poor fit]"

row,SMILES,Potency
1,Cc1ccc(COc2ccsc2C(=O)NNC(N)=S)cc1,inactive
2,CC1(O)C(=O)C=C2C=C(c3ccc(C#N)cc3)OC=C2C1=O (stereo not drawn),inactive
3,CC(C)(C)CC(=O)Nc1nn[nH]n1,"inconclusive: 0.398 µM [activator, partial curve, poor fit]"
4,O=C(CSC1=NCCS1)N1CCc2ccccc21,"inconclusive: 14.1 µM [activator, partial curve, poor fit]"
5,CS(=O)(=O)N(CC(=O)N/N=C/c1cc([N+](=O)[O-])ccc1Cl)c1ccccc1,"inconclusive: 0.631 µM [activator, full curve, poor fit]"
6,CCOC(=O)C(/C(N)=N/C(=O)Nc1ccccc1)=C(\C)O,inactive
7,Cc1ccccc1-n1c(SCC(=O)c2cc(C)n(C)c2C)nnc1-c1ccncc1,inactive
8,CS(=O)(=O)N1CCN(c2ccc(NC(=O)c3ccc(Br)o3)cc2)CC1,active: 7.08 µM
9,O=c1[nH]ncc2ccccc12,inactive
10,CCOc1ccc(-c2cc3c(=O)n(Cc4nc(-c5ccc(OC)cc5OC)oc4C)ccn3n2)cc1Cl,inactive
11,CCN(CC)S(=O)(=O)c1ccc2oc(C(=O)NCCCN3CCOCC3)c(C)c2c1,inactive
12,Cc1ccc(S(=O)(=O)c2nc(-c3ccco3)oc2NCC2CCCO2)cc1 (stereo not drawn),"inconclusive: 35.5 µM [activator, single point]"
13,COC(=O)NC1(C(F)(F)F)C(=O)NC(C)=C1C(=O)OC (stereo not drawn),"inconclusive: 25.1 µM [activator, partial curve, poor fit]"
14,O=C(CC1SCCNC1=O)Nc1ccc(Cl)cc1 (stereo not drawn),"inconclusive: 15.8 µM [activator, single point]"
15,Cc1ccc(-c2cc(C(=O)N3CCCC3)no2)cc1,active: 0.891 µM
16,CN1N=C(C(=O)N2CCc3c([nH]c4ccccc34)C2c2c(F)cccc2Cl)CCC1=O (stereo not drawn),"inconclusive: 12.6 µM [activator, partial curve]"
17,O=C(O)/C=C\C(=O)NC1CCCCC1,"inconclusive: 3.98 µM [activator, partial curve, poor fit]"
18,Cc1nc2cc(-c3ccc(Cl)cc3)nn2c(C)c1CCC(=O)NCc1ccco1,inactive
19,COc1ccccc1-c1nn2c(=O)cc(C)nc2s1,"inconclusive: 3.16 µM [activator, single point]"
20,COc1ccccc1N1CCN(C(=O)c2c(C)cc(=O)oc2C)CC1,"inconclusive: 3.55 µM [activator, partial curve]"
21,O=C(Nc1ccc2c(c1)OCO2)C1COc2ccccc2O1 (stereo not drawn),"inconclusive: 35.5 µM [activator, single point]"
22,CNC(=S)N1CCn2cccc2C1c1ccc(F)cc1 (stereo not drawn),"inconclusive: 31.6 µM [activator, single point]"
23,Cc1cc(C)c2c(=O)[nH]c(SCC(=O)NCc3ccccc3)nc2n1,"inconclusive: 17.8 µM [activator, single point]"
24,Cc1nnc2sc(-c3csc4c3CCCC4)nn12,"inconclusive: 3.55 µM [activator, partial curve, poor fit]"
25,Cc1ccc(NC(=O)Nc2ncccc2C)cc1,active: 10 µM

row,SMILES,Potency
1,COC(=O)c1[nH]c2ccc(C)cc2c1NC(=O)CN1CCC(C)CC1,"inconclusive: 0.224 µM [activator, full curve]"
2,O=C(COc1ccccc1C(=O)N/N=C\c1ccc(O)c(O)c1)N/N=C/c1ccc(O)c(O)c1,"inconclusive: 17.8 µM [activator, partial curve, poor fit]"
3,Cc1ccc(O)c(C(=O)c2cnn(C(=O)Cc3csc(C)n3)c2)c1,inactive
4,O=C(/C=C/c1c(F)cccc1Cl)NCc1ccco1,"inconclusive: 10 µM [activator, partial curve, poor fit]"
5,COc1cc2[nH]c(=O)n(Cc3ccccc3Cl)c(=O)c2cc1OC,"inconclusive: 0.501 µM [activator, full curve, poor fit]"
6,CCOC(=O)c1c(-c2ccc(-c3ccccc3)cc2)csc1NC(=O)c1cccc(N2C(=O)CCC2=O)c1,inactive
7,CCCCCCCCCCSc1n[nH]c(NC(C)=O)n1,"inconclusive: 3.98 µM [activator, full curve]"
8,Cc1[nH]n(C(N)=S)c(=O)c1N=Nc1ccc(S(=O)(=O)N2CCCCCC2)cc1,inactive
9,O=C(CC(=O)c1ccccc1)Nc1ccc2c(c1)OCCO2,active: 12.6 µM
10,CCOc1ccc2nc(/N=C/c3nc(-c4ccccc4)oc3O)sc2c1,"inconclusive: 5.62 µM [activator, single point]"
11,COc1ccccc1C(=O)Nc1cc(-c2ccc(C)cc2)no1,"inconclusive: 25.1 µM [activator, single point]"
12,CC1CN(C(=O)/C(C#N)=C2\N=C(NC(=O)c3ccccc3Cl)c3ccccc32)CC(C)O1 (stereo not drawn),"inconclusive: 2 µM [activator, partial curve, poor fit]"
13,CCOc1ccc(C(=O)Nc2onc3c2CCCC3)cc1,active: 2.82 µM
14,O=c1oc(-c2ccccc2)nc2sc3c(c12)CCC3,"inconclusive: 22.4 µM [activator, single point]"
15,O=C(Nc1nccs1)c1ccc(NC(=O)c2ccco2)cc1,"inconclusive: 11.2 µM [activator, single point]"
16,COc1cccc(/C=C/C(=O)Nc2ccc3[nH]c(=O)[nH]c3c2)c1,"inconclusive: 31.6 µM [activator, single point]"
17,O=C(c1cc2ccccc2o1)c1cccs1,"inconclusive: 10 µM [activator, partial curve]"
18,O=C(/C=C/c1ccccc1)Nc1nnc(-c2ccco2)o1,inactive
19,COc1ccc(S(=O)(=O)NC(C)C(=O)O)cc1 (stereo not drawn),"inconclusive: 0.447 µM [activator, single point]"
20,O=C(CSc1ncccc1C(=O)O)c1ccc2ccccc2c1,"inconclusive: 17.8 µM [activator, partial curve, poor fit]"
21,Cc1ccc(NC(=O)C(=O)NCc2ccccn2)cc1,"inconclusive: 10 µM [activator, partial curve]"
22,COc1cc2c(=O)c(-c3ccc(O)cc3)coc2cc1OC1OC(CO)C(O)C(O)C1O (stereo not drawn),"inconclusive: 12.6 µM [activator, single point]"
23,COC(=O)CC1=C(C(=O)OC)C(c2ccncc2)C(C#N)=C(N)O1 (stereo not drawn),"inconclusive: 15.8 µM [activator, partial curve, poor fit]"
